Experimental data published in the supplement of paper PMC11417369.
± gives the standard deviation of the averaged measurements. Some of the results follow.

Test system: PfAP2-G AP2 domain (GST-tagged)
Assay: gcPBM binding intensity (ln(normalized median fluorescence intensity)); higher = stronger DNA binding
Procedure, shortened: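 Alexa488 anti-GST antibody, scanned at 488 nm, detected GST-tagged P. falciparum DNA-binding domains that had been expressed in E. coli and incubated for 1 h on an Agilent 4 × 180k array. The array carried primer-extended double-stranded 36-bp intergenic genomic probes and negative controls. Binding intensity is the highest Masliner-normalised natural-log median intensity across replicate spots of either orientation of each probe.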

Point of comparison: “TGAAAATAGTTAATTTGTACACAAAAATTAAGAAAA [XGTACX_site5794]”, “gcPBM binding intensity (ln)” value 11.2 ± 0.8. Against it:
- TTATATTTATTTAATGAACACACGATATATTATTTT [CACACA_site1601] — lower, 9.96 ± 0.13
- TTTGTCAACCAAAATTGTACAAATGTATTCCCAATA [XGTACX_site1350] — within error, 10.8 ± 0.46
- TTATTTATCAAAAAATGTACAAAAATATATAAACAA [XGTACX_site940] — within error, 10.9 ± 0.57
- TTTTTTTTTTTTGTCACACATATGGAATATATCTAT [CACACA_site5899] — lower, 9.98 ± 0.35
- AAAAAAAAAAAAAAAGGTACACAAAACGGTATTATT [XGTACX_site7064] — within error, 11.3 ± 0.68
- AACTCATAGGAGTGTGCACACAAAAAATTAAAAAAA [CACACA_site8996] — within error, 10.7 ± 0.47
- CTCAAAAAATATGAACGTACAAAATAAGTAATGACA [XGTACX_site590] — within error, 11.1 ± 0.45
- TTTTTTTTTTTTTTTGCACACATTTTAATTATTTTT [CACACA_site341] — lower, 9.88 ± 0.38
- TTGTATCATATATTATGTACATATTGATTTATTACC [XGTACX_site12] — the same, 11.2 ± 0.55
- CAAAGTATTATGATTACACACATGTGCTTTTTTCTT [CACACA_site163] — lower, 9.85 ± 0.15
- AATAATAAATAAATGTGTACTTAAAAATATTATATT [XGTACX_site3005] — within error, 11.5 ± 0.87
- TTATTGTTATTTGTTTGTACATAATATAATATATTA [XGTACX_site6477] — within error, 11 ± 0.71
- TCCTATGATGATGATAGTACATATGAGTTCAAAAAA [XGTACX_site273] — within error, 10.9 ± 0.54
- ACAATTAATCAAACAAGTACAAAATATATCCCTATT [XGTACX_site6223] — within error, 11 ± 0.65
- AACCATACACAAATAAACATAGACACAGATACCTCC [CACACA_negctrl_site598] — lower, 10
- AATATAAAAAAAAACAAAAAAAAAATTTTGGTTCAC [CACACA_negctrl_site1290] — lower, 9.53 ± 0.18
- ATGTCCTATATTAGTACACACATGAAAATATAAATA [CACACA_site7497] — within error, 11.6 ± 1.1
- AAAATTTTGGAACGTGCACACATATGTAATATATAT [CACACA_site9004] — within error, 10.5 ± 0.24
- AATATGTGTATAGATAGTACACATGCTGATAATATA [XGTACX_site5941] — the same, 11.2 ± 0.76
- AGTAGTCTGGAGAAATGTACACAGTATCTGGTAGCT [XGTACX_site4871] — the same, 11.2 ± 0.69
- TTTTTAAAATATTTAACACACAATTATAATGCATAA [CACACA_site3932] — lower, 10.1 ± 0.18
- ATTATACAAATTGAGGTGCATGAAACAAAATATGAA — lower, 10.2 ± 0.18
- ATATTTTTTTTTTTATGTACTTATTTATAATTATTT [XGTACX_site5279] — within error, 11.6 ± 0.95
- AGCTTGTAACAGTTTACACACTAATATTTATAAATT [CACACA_site6024] — lower, 10.11 ± 0.028
- CTTATAAGAATACTAGTGCACATAATTTAACGAAAA — within error, 10.4 ± 0.18
- TATTAATGATAAAAAAGTACATTATTATATGATATT [XGTACX_site4235] — within error, 11.3 ± 0.95
- TACTTATTGTGATACTTATATTATTTTATGATTAAA [XGTACX_negctrl_site353] — lower, 10.2 ± 0.035
- TATATTTATTTATATACACACATAATAAAAAATATA [CACACA_site6527] — within error, 10.1 ± 0.38
- ATCATTTGCATACGCACACACACATAAAAAGAAAAA [CACACA_site355] — within error, 10.4 ± 0.45
- TCTATCAAATTTGAAGGTACACATTTGAGATAATTA [XGTACX_site3797] — within error, 11 ± 0.73
- TTTTTTTTTTTTTTTTCACACATTGTACTTTTTTAT [CACACA_site5193] — within error, 11.6 ± 1.2
- TAAGTCATATAAATGTGTACATAAAAAAAAAAAATG [XGTACX_site1645] — within error, 11.6 ± 1
- CATCTAAATTGTAGTTGTACACCTTAATCTTATTAC [XGTACX_site7547] — within error, 11.7 ± 0.83
- TATTTTATCATTTGCACACGCACACCGACATAAAAA [CACACA_site4348] — within error, 10.6 ± 0.43
- CATACAATAAATATGGTGCATTTTATGTAACCGTTT [GTGCAC_site9420] — lower, 10.13 ± 0.092
- TGAACATATTAAAATTGTACATATGCACAATATGTA [XGTACX_site6801] — within error, 10.8 ± 0.52
- AAGGATATAACATACACACACACACGGATATAAATA [CACACA_site7867] — lower, 10.1 ± 0.11
- ACTCTCTTATATTAAACACACATATTTATAGGTATA [CACACA_site7302] — within error, 10.2 ± 0.26
- ATTTTAGAATAAATTTTTTACATTAAAAAACTATTT [CACACA_negctrl_site1414] — lower, 9.71 ± 0.12
- GTATCAAAAGAATACACACACACATACATATATATA [CACACA_site3796] — within error, 10.2 ± 0.22
- TTTTAATTAAAACACACACACACATATATATATATA [CACACA_site2291] — within error, 10.5 ± 0.73
- TATTTCATCATATTGTGTACTTAATTTATATAATTA [XGTACX_site5753] — within error, 11.5 ± 0.92
- TGAAAAATAAATAAATGTACATATATATATATATAC [XGTACX_site7310] — within error, 10.9 ± 0.49
- AGAAATACAAAATAAATATAAGAAACAAAATATTTA [CACACA_negctrl_site780] — lower, 9.63 ± 0.028
- AAAAGGTTATCAATATGTACATATTTTTTTATTTTT [XGTACX_site3277] — within error, 11.1 ± 0.61
- ATAAAAATATGATCAACACACGATTAAATATTCATA [CACACA_site1495] — lower, 9.97 ± 0.19
- AGATGTTTTTATATATGTACTTAAATACACAAATAT [XGTACX_site8250] — within error, 11.4 ± 0.86
- AAAAAAAAAAAAAACACACACACAAAATAAACAAAC [CACACA_site2720] — lower, 10.19 ± 0.078
- GATAAAATGGATGGATGTACATTATTTCCATATAAT [XGTACX_site7781] — within error, 11 ± 0.47
- ATATTACTTCCTAAGTGTACAAGTAAGGAGAAAAAA [XGTACX_site3921] — within error, 11.3 ± 0.92
- TGATAATTTTTTACATGTACAAGTTTGTTTTTGCAT [XGTACX_site125] — within error, 11 ± 0.73
- TTATCGGTATAATATAGTACATATAGATATATAATA [XGTACX_site1440] — within error, 10.9 ± 0.71
- TGAATATTTCTATATACACACATATAAATATAAATA [CACACA_site7593] — lower, 9.85 ± 0.14
- ATAATGGAGAAATAAGCATGCATTATATTATAAAAA [TGCATGCA_site325] — lower, 9.66 ± 0.26
- TAAAAGTTAATATAAACACACAAAAATTAATAAATA [CACACA_site6316] — lower, 9.94 ± 0.028
- AATTTCTATTTTGTGAGTACATACTCCTATTATATA [XGTACX_site3210] — within error, 11.6 ± 1.1
- CATATATTTTTGTATAGTACTTTTTTTATTCGTTTT [XGTACX_site1860] — within error, 11.3 ± 0.91
- AAAAAAAAAAAAATGTAATTTTTTAATTATTTATAT [GTGCAC_negctrl_site436] — lower, 9.47 ± 0.11
- AAAATACATAAACGTTCACACATTTAAGATAACGAG [CACACA_site5345] — lower, 9.88 ± 0.16
- GAATGCCTTGAAAATAGTACAATTAAGAAAAAATAC [XGTACX_site8002] — the same, 11.2 ± 0.81
- AATAAAAGATCATTTATTCTTTTTTTTCTTTTTAAA [CACACA_negctrl_site1256] — lower, 9.51 ± 0.26
- TAAATAAATTTATACACACACACACCGATATATATA [CACACA_site4622] — lower, 9.975 ± 0.092
- TGAATAAATATATATACACACATATATGTATATATT [CACACA_site1642] — lower, 9.72 ± 0.071
- TATATATATAATATATGTACATATTAATTATGTATA [XGTACX_site5366] — within error, 11.3 ± 0.62
- GAGTTTACACTCCCTTGTACATATTCATTTTTATTC [XGTACX_site5208] — within error, 10.9 ± 0.5
- AAAGAAATATATACAAAAATATGAACAATTTATTAT [XGTACX_negctrl_site78] — lower, 10 ± 0.17
- TTTTCGATGTTGGTAGGATGTATGGTACACGTAGTA [TGCATGCA_negctrl_site61] — within error, 11.3 ± 0.74
- TATGAAAATATATATTGTACAGAATCTATAAAAAAT [XGTACX_site8030] — within error, 10.7 ± 0.42
- TTTTATTTTATAAAAATAAAAAAAAAATTATTACAA [TGCATGCA_negctrl_site508] — lower, 9.61 ± 0.15
- TATGATTGTTTACGTTGTACAGCTGAATTGTTCTTA [XGTACX_site8114] — within error, 11.1 ± 0.77
- GAAAATTTTTGGTGTACACAAAAAAATCCAAAAAAA [CACACA_site5042] — within error, 11.7 ± 0.87
- CATAAACTTTTTAACACACACTTATATATATATATA [CACACA_site4747] — within error, 10.3 ± 0.49
- AAAAATTCTTTTTCATCTATATGCAGAAAGAAAAAG [CACACA_negctrl_site1201] — lower, 9.86 ± 0.099
- TAATTTTTATGAAGAAGTACAAAATCTACTATCATA [XGTACX_site4985] — within error, 11.1 ± 0.85
- CTAAATAAAGTTAACACACACATAATATATATATGT [CACACA_site486] — lower, 9.955 ± 0.021
- TACATCTGTAATGTGTGTACATATATGTATATATTT [XGTACX_site1805] — the same, 11.2 ± 0.64
- GAATTTATGAACTGTGCATGTAAAAAAAACAACAAA [TGCATGCA_site449] — within error, 10.2 ± 0.25
- TATAATAATATATATTGTACACACAAAATGGGAAAA [XGTACX_site3911] — within error, 11.4 ± 0.93
- TATATGAAGCTATAGACACACATATAAAAATATAAT [CACACA_site4850] — lower, 9.92 ± 0.16
- ATATAAAAAAAAGATGAAAAAAAAAATGAAAGAAAG [CACACA_negctrl_site1266] — lower, 9.87 ± 0.16
- AATTGAAAAGAATGAAGTACACATTTGATGATACAT [XGTACX_site5182] — within error, 11.5 ± 0.98
- ATATATATAATATGATGTACATATTTATTTATATAT [XGTACX_site7333] — the same, 11.2 ± 0.54
- AATGAAATAAAATAAAGTACATATATGTAAAAGTAG [XGTACX_site5650] — within error, 11.4 ± 0.79
- TTTTTTTTTTTTTACACACACAAAATATTATCTGTA [CACACA_site5378] — lower, 9.83 ± 0.42
- AGTATTATATTTGTATGTACGTAGTAATATATAAAA [XGTACX_site528] — within error, 11.4 ± 1.1
- TTTTTCATAAATATATGTACATATATTTTATATAAC [XGTACX_site3402] — within error, 11.3 ± 0.8
- ATTTGTTTATAGGCCATAAAATATTTAATTCATTTG [CACACA_negctrl_site1824] — within error, 10.2 ± 0.21
